The chains are these.
B1: CPEB3 Ribozyme (parent)
chain: UAACAGGGGGCCACAGCAGAAGCGUUCACGUCGCAGCCCCUGUCAGAUUCUGGUGAAUCUGCGAAUUCUGCUGUAUAUCUC

The source gives no read counts; variants with many changes may rest on few reads.

Variants of B1 are the subject of the series. Description: self-cleavage, relative activity (ratio to wild type); higher = more cleavage; in vitro, sequencing. An outline of the steps:
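Relative activity compares each variant's cleaved/total read fraction with that of the unmutated ribozyme. To get these fractions, barcoded CPEB3 ribozyme libraries from rounds of error-prone PCR were transcribed with T7 RNA polymerase for 5 hours at 37°C and then given 15 min of DNase I treatment before EDTA was added. The RNAs were reverse transcribed with template switching and sequenced on Illumina, and DNA sequencing linked barcodes to variants. A minimum of 5 reads applied, and three batches were averaged.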
Take A5G A20G G24U: the self-cleavage came to 0.1. Then A5G G8A A15U U69A, with 0.07; and A5C U41A U48A U74A, with 0.07; and A5G C40A A64U, with 0.19. With A5G C11G G70A, the self-cleavage was found to be 0.1. On to A5G A28G U31A U43A, for which the self-cleavage was 0.41.

Take A5G G6A G24A A35U U60C: the self-cleavage is 0.06. Take A5G G6U A13U U25C U41C: the self-cleavage is 0.18. Then A5G A18U U25C A35U U43A A57G C71A, with 0.07. Then A5G G6C G61A U74C A75G, with 0.4.

Consider A5G G7A U49A A57G U69A U72C, for which the self-cleavage was 0.14. Then A5C G24C A56G G63C A64G, with 0.16; and A5G C14A U41A, with 0.41; and A5G G8U U58C A64G U72A, with 0.07. Then A5G A28G U43A A45U A65G U72C U80C, with 0.03; and A5C U41C A65U U69A, with 0.26.

Consider A5G G22A U51C, for which the self-cleavage came out at 0.35. With A5G G6C A56G U78C the figure was 0.65. In the case of A5G A15U C37G, the self-cleavage stood at 0.46. Then A5G A35G G63C, with 1.15. With A5G A35U U43C U51A U54C the figure was 0.16; with A5G A13G U48C U60C, 0.04; with A5G A28U U49A G55U A77U, 0.46. With A5G A13G U31G A35G A77U the figure was 0.08; with A5G G7C A35U U72C, 0.09; with A5G A18U G24C G30A, 0.08. Take A5C G19C A56G: the self-cleavage was determined as 0.43. Then A5C U26C A28G, with 0.3.

For A5C G10A A21U U31C U54C U72C, the self-cleavage came out at 0.06.

For the variant A5G C39A U72G, the self-cleavage was 0.23.

Take A5G A20U U60A: the self-cleavage was 0.31.

With A5G A20G U48C G73A, the self-cleavage was determined as 0.65. Take A5G A13U A21C A45G A64U C81A: the self-cleavage amounted to 0.17. Then A5G C12U G16U A28G U41C U48C U54C, with 0.06; and A5G A13U C27G G55A, with 0.37. With A5G A13U U26C U48A G63A A64C the figure was 0.25.

Take A5G A21G A28G U43A: the self-cleavage was 0.17. A5G A28G U48C U51A U69C U72A U78A: the self-cleavage was 0.24. Then A5C U41C U78C, with 0.66.

For the variant A5G C23U U25C C34G U43A U60A, the self-cleavage amounted to 0.09. With A5G A20G A35U U60C the figure was 0.32; with A5G G9A A13U U54A, 0.39; with A5G A18G U26A G33A U43A U69C, 0.11. With A5G A21G C38U U54G U67C A75G the figure was 0.15; with A5C G9U A35U C38U, 0.06. With A5G A20G C27U A28G the figure was 0.04; with A5G A21G A45G U60C U69C A77U, 0.3. As to A5G G9A A64G A65U U74A, the self-cleavage came out at 0.16. Then A5G A15G A18G A45G, with 0.1. Then A5G G6U C59U U80G, with 0.07; and A5G G8A A45G A57U A65G, with 0.22; and A5G C12U A28G A77G, with 0.28.

In the case of A5G A18U C29A C38A U51A A57U, the self-cleavage worked out at 0.4.

Take A5G A20G A21G U25A G30A U58A: the self-cleavage was determined as 0.07. With A5G A13U G19A A45G A65G the figure was 0.07. As for A5G A57G U78A, the self-cleavage came to 0.85. For the variant A5G C38U A64U, the self-cleavage was determined as 0.58. Then A5G C17U G55A, with 0.14; and A5G A18G U48C, with 0.63; and A5C G24C C50A, with 0.43. As to A5G A20G U43A U49A, the self-cleavage turned out to be 0.48.

Take A5G A21G A64G U72A U80C: the self-cleavage was determined as 0.43. Then A5G G10A G19U A56G U60G U78G, with 0.04; and A5G G9A C37U U43C A64G, with 0.19.

A5G C12U U60C G70A U72C: the self-cleavage is 0.18. Then A5G A15G A18G A47G, with 0.1. With A5G A13U A20G A47G U80C the figure was 0.69. Then A5G A45G A57G A65G U74A, with 0.35.

For A5G G42A A47G U66C, the self-cleavage turned out to be 0.15.

In the case of A5G A13U A28U U72C, the self-cleavage was determined as 0.32.

For the variant A5G A18U A47G A57G U74C, the self-cleavage turned out to be 0.2. Then A5G A21G C23U A35C A57U, with 0.07; and A5G G8A U26C, with 0.41; and A5G A21G U31G A56G, with 0.5. With A5G A45G U58C G63A C71G the figure was 0.13; with A5G A20C U41C U43A U66C, 0.43. As for A5C U31C U43G U69C, the self-cleavage came out at 0.4. With A5G A18G A28G G46U the figure was 0.07; with A5G C14A U31C U41A, 0.09.

A5C U72C U80C: the self-cleavage turned out to be 1.06. With A5G G7A U31A the figure was 0.08; with A5G C23G U26C C37A A64G U72A, 0.06. Regarding A5G U25A C29U U60C A64G U72A U80A, the self-cleavage was 0.05. Then A5G G10A U43C U67A U69C, with 0.08.

A5G G6U U41A: the self-cleavage came to 0.36. As for A5G G8U A18G G24A C71A, the self-cleavage came to 0.03. Then A5G A20U U48C, with 0.11; and A5G G9A A15G U25C C40U U48A, with 0.09; and A5G C17A U76A, with 0.52. Then A5G C44U A45U U69A, with 0.27. For A5G G8A A18G G33A G36U G61U U69C, the self-cleavage is 0.06. With A5G A20G A35U A45C the figure was 0.48; with A5G G6A U25C C32A U80A, 0.09; with A5G G6C U69C, 0.12. With A5G U25A C39A A65C U67G U80C the figure was 0.06; with A5G A21G U54C A64U U74A, 0.11. Take A5G A18G U26C U41G: the self-cleavage turned out to be 0.3. With A5G A20U U76G the figure was 0.37. With A5G G24A U25C U31G G33A the figure was 0.15.

Turning to A5G A20U A21G, the self-cleavage was found to be 0.43. In the case of A5G A45G U69A U80A, the self-cleavage was determined as 0.37. Consider A5G A28G A35U A45G U49A A57G, for which the self-cleavage stood at 0.2. Then A5G C12G A28G U69G, with 0.21. For A5G G6A A21G C71A U74C A75G, the self-cleavage is 0.12. Then A5G A15G A21G A28G U48C U49A A56U, with 0.3; and A5C U31C A45U U54C A65G, with 0.1.

On to A5G A18U U41A U80A, for which the self-cleavage turned out to be 0.16.

Regarding A5G A15U U25C, the self-cleavage came to 0.34.

A5G A28C A35U U54C U58C: the self-cleavage is 0.23.

As for A5G A20U C39A U69A U72A, the self-cleavage stood at 0.14. Take A5G A21G A47G U54A U60C: the self-cleavage worked out at 0.3. As for A5G C11U A21C A56C U60G U67C, the self-cleavage is 0.03. With A5G A28G U51C, the self-cleavage was 0.41. With A5G A15U A64G the figure was 0.28. Then A5G A18G A21G C29G A35G U41C, with 0.56; and A5G A21G A45G A56U U60C C71G U76A, with 0.03. With A5G G42A C81A, the self-cleavage worked out at 0.59. Then A5G C12U A13G, with 0.18; and A5G A15C U48C, with 0.49; and A5G G6U G10C A21U, with 0.05. With A5G G10A C29G A47G A75U the figure was 0.14; with A5C G10A A15U, 0.1. With A5G A35G U54C A56G A57G U60A the figure was 0; with A5G A18G A28G, 0.3. In the case of A5G A64U A75G, the self-cleavage came out at 0.72.

On to A5G A56U A65C U72C, for which the self-cleavage turned out to be 0.07.

A5G A13U A18U G73U: the self-cleavage turned out to be 0.29. For A5G G9A A47G U60C, the self-cleavage amounted to 0.2. On to A5G A15U U25A G30U U51C A64U G73A, for which the self-cleavage is 0.27. With A5G A20U G33A U48C, the self-cleavage is 0.32. Regarding A5G A15U U54A U60C, the self-cleavage is 0.2. With A5G A13C U72G the figure was 0.53; with A5G A18G U54C A57G, 0.09. With A5G C32U U48C U60A the figure was 0.1; with A5G C11U A15G U58A U80A, 0.16; with A5G C39U U54A U58C U74C, 0.13. With A5G A13U U43C the figure was 0.38; with A5G A20G C59U, 0.61; with A5G A45G U60C G70A U72C, 0.06. Consider A5G A13C U69A U72G, for which the self-cleavage is 0.05. On to A5G A13G G22C A35G A45G A47U U72C, for which the self-cleavage came to 0.08. Then A5C U43C G46U A56G U66A U78C, with 0.04; and A5G G6A A15U A35G U48C, with 0.11; and A5G A35G U60C U72C, with 0.46. With A5G C14U C40U U43C U74A the figure was 0.27; with A5C G36U A47G U51C U72G, 0.09. With A5G A35U U49A U60C the figure was 0.12. As for A5C G9U A28U C38U, the self-cleavage stood at 0.09. With A5G C59G C62U the figure was 0.29; with A5G A21G U72A, 0.16; with A5G G6C U25C G30C U67A U76G, 0.19. Then A5G A15G U26C A64U, with 0.39; and A5G A18U A45U U48C U51C A75G, with 0. Then A5G A15G A18G U69C, with 0.36; and A5C G19C A20G C38A U54C, with 0.07. A5G A47G U54A U60C: the self-cleavage amounted to 0.34.

As to A5G A20G U31C A64U U67A, the self-cleavage was found to be 0.52. With A5G C11G U51C U60C the figure was 0.05; with A5G G9U U25C U72A, 0.23; with A5G G8A U25C U74G, 0.73. Then A5G C12A A13G A35U A47G U49C, with 0.09; and A5G A20C U74C, with 0.11; and A5G C34U U54C U60A U80C, with 0.17. With A5G A18G A21G U67G A77G the figure was 0.71. On to A5G A21G A75U, for which the self-cleavage came out at 0.82. Then A5G A21G A75G, with 0.12. With A5G A15C C37G the figure was 0.8.

(Values after the RNAGym collection of RNA variant scans (doi:10.1093/nar/gkz1192).)
